In the BET-seq Pho4 binding data (Le et al. 2018):
The other results are listed elsewhere or left out. Values were computed here from the reads of four pooled replicates and scatter widely.

Target: T1, Pho4 (S. cerevisiae) (UniProt P07270)
T1 sequence: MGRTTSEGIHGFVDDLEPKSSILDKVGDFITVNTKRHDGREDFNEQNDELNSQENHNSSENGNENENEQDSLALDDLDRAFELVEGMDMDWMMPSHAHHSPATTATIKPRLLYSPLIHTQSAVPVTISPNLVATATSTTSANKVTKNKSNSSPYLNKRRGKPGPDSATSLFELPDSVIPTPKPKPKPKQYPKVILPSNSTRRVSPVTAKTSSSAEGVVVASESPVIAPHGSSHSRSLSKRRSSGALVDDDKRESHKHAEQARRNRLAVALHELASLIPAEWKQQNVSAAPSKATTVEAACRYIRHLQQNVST
Assay: relative binding free energy (BET-seq); higher = weaker binding
Conditions: reference: library average

Sequence	relative binding free energy
ATTTGCACGTGGAGTG	0.03 kcal/mol
TTAGCCACGTGTATTA	0.18 kcal/mol
TTGGTCACGTGAGGTT	0.49 kcal/mol
TATGACACGTGTCGAT	0.06 kcal/mol
CTTATCACGTGGTGAA	0.11 kcal/mol
GCTCACACGTGGAGTG	0.34 kcal/mol
GCTGGCACGTGGTGTA	-0.22 kcal/mol
ATGAGCACGTGTTATA	-0.09 kcal/mol
ATGAACACGTGGTATT	-0.02 kcal/mol
GGAGGCACGTGTCGGG	-0.11 kcal/mol
GGAATCACGTGTGAGG	0.14 kcal/mol
TGAAACACGTGTAGTG	-0.05 kcal/mol
GGGTTCACGTGTCGGT	0.46 kcal/mol
GAGATCACGTGTTTGA	0.14 kcal/mol
TTTGCCACGTGATTTT	0.24 kcal/mol
ATACGCACGTGGTGAG	-0.16 kcal/mol
TATGTCACGTGTCCGG	-0.01 kcal/mol
AGTGGCACGTGGTGCG	-0.19 kcal/mol
GGGGACACGTGTCTGG	0 kcal/mol
GGGTTCACGTGGCTCG	0.39 kcal/mol
GATTACACGTGGTTTG	0.12 kcal/mol
TTTTGCACGTGCCGGG	0.01 kcal/mol
AGTTCCACGTGTTTTG	-0.04 kcal/mol

Sequence	relative binding free energy
GAATACACGTGGTGTA	0.06 kcal/mol
ATGGTCACGTGCGTAG	0.08 kcal/mol
GGGTCCACGTGTGTAT	0.02 kcal/mol
AAGGGCACGTGGGGGT	-0.16 kcal/mol
AGTAGCACGTGTGTAA	0 kcal/mol
ATGAACACGTGGGGAG	-0.01 kcal/mol
TATGGCACGTGAGAAG	0.25 kcal/mol
GCGGTCACGTGAGATG	0.35 kcal/mol
AGATGCACGTGTTAGT	-0.12 kcal/mol
TACGGCACGTGAATTT	0.25 kcal/mol
TGGGACACGTGCTGAG	0.09 kcal/mol
TAGTTCACGTGAGTAA	0.3 kcal/mol
ATGGTCACGTGGCGAT	0.02 kcal/mol
TTAATCACGTGTTGTG	-0.01 kcal/mol
TGGATCACGTGGTCTT	0.15 kcal/mol
TTGGACACGTGTTGCA	0 kcal/mol
GTTACCACGTGGTTTT	0.03 kcal/mol
AGTAGCACGTGGTTTG	-0.15 kcal/mol
CGGGTCACGTGGATGG	0.06 kcal/mol
GTGATCACGTGAAGTA	0.27 kcal/mol
CTGCGCACGTGGTCGG	-0.21 kcal/mol
GTCTACACGTGGGGAT	0.1 kcal/mol
TGGGGCACGTGTTCTC	-0.07 kcal/mol

Sequence	relative binding free energy
GTAGCCACGTGGAGGA	0.07 kcal/mol
ATGGTCACGTGCTTGG	0.09 kcal/mol
GCTTACACGTGGTAGT	0.09 kcal/mol
GGGTACACGTGGCATG	0.08 kcal/mol
AAGTTCACGTGGTGGC	0.17 kcal/mol
GTTTTCACGTGAGCTG	0.37 kcal/mol
CTATGCACGTGGGGAG	-0.21 kcal/mol
TTGTGCACGTGGCTTT	-0.04 kcal/mol
TAACGCACGTGGTGTG	-0.28 kcal/mol
AGTTGCACGTGGGATG	-0.16 kcal/mol
ACTAGCACGTGAGGTT	0.24 kcal/mol
AGATGCACGTGTATAT	0.08 kcal/mol
TGTTGCACGTGGGGCT	-0.14 kcal/mol
CGTTTCACGTGAGGTG	0.44 kcal/mol
CTTGGCACGTGAAGTG	0.24 kcal/mol
AGGCTCACGTGCGGGG	0.14 kcal/mol
TATAACACGTGTTAGG	0.01 kcal/mol
ATTGACACGTGATTAG	0.27 kcal/mol
CGTTTCACGTGTGGAG	0.16 kcal/mol
CGTTACACGTGTATTT	0 kcal/mol
TAGGGCACGTGCTGGA	-0.34 kcal/mol
GAGTCCACGTGATGTT	0.28 kcal/mol
GTTAACACGTGAAATG	0.33 kcal/mol

Sequence	relative binding free energy
TGTCTCACGTGTGCTT	0.21 kcal/mol
GTGATCACGTGCGGTA	0.11 kcal/mol
ATGAGCACGTGGCGCG	-0.2 kcal/mol
GAGTGCACGTGTATTA	-0.01 kcal/mol
AATTTCACGTGTCTAT	0.27 kcal/mol
GTGGTCACGTGTTACT	0.12 kcal/mol
GAGTCCACGTGGGTGT	-0.09 kcal/mol
TTGCTCACGTGGTTAA	0.21 kcal/mol
GAGGCCACGTGTGGTA	0.15 kcal/mol
CGGGACACGTGGGGAG	-0.13 kcal/mol
GTATGCACGTGGTGCT	-0.12 kcal/mol
GGTGTCACGTGAGACT	0.13 kcal/mol
TGTCACACGTGAATTG	0.33 kcal/mol
AATTGCACGTGGAGCG	0.04 kcal/mol
TTCAGCACGTGGGGAA	-0.19 kcal/mol
GTAGACACGTGTGGAT	0.2 kcal/mol
AGGTACACGTGTTTTT	0.03 kcal/mol
GCTTACACGTGGAGGG	0.07 kcal/mol
ATGGACACGTGGTACT	0.01 kcal/mol
TCGTTCACGTGTCTGG	0.39 kcal/mol
TGTTGCACGTGTCGCA	-0.04 kcal/mol
AATCACACGTGGGGTA	-0.04 kcal/mol
GGGGTCACGTGTGGTG	0.22 kcal/mol

Sequence	relative binding free energy
TCAGTCACGTGTTTTG	0.08 kcal/mol
ATTATCACGTGTGCGT	0.26 kcal/mol
GTTCCCACGTGTGGTT	0 kcal/mol
AGTGTCACGTGGAGCA	0.21 kcal/mol
CTTTGCACGTGTGTTA	0.02 kcal/mol
ATTTTCACGTGCGTTT	0.28 kcal/mol
ATTTTCACGTGGCAAT	0.37 kcal/mol
GCTTACACGTGGTTTG	0.08 kcal/mol
TTTTGCACGTGTCGTT	-0.02 kcal/mol
ACGGGCACGTGAGCGG	0.07 kcal/mol
CTGATCACGTGTTGGG	0.07 kcal/mol
TAGCGCACGTGGACGG	-0.02 kcal/mol
TGTGTCACGTGTTTCG	0.09 kcal/mol
GTTAGCACGTGGGGAG	-0.14 kcal/mol
GGGAACACGTGGTGGA	0.04 kcal/mol
GGATACACGTGGTGAT	0.16 kcal/mol
AACGGCACGTGAGAGT	0.29 kcal/mol
GTTATCACGTGGGAAA	0.22 kcal/mol
TTTGTCACGTGTAAGT	0.2 kcal/mol
GGCGGCACGTGCGTAG	-0.13 kcal/mol
TATGCCACGTGTGTCT	0.01 kcal/mol
TGTAGCACGTGAGCGG	0.16 kcal/mol
ATTGACACGTGTACTT	0.21 kcal/mol
